This is an account of results in the supplement of paper PMC6135742.

Values joined by “and” are separate entries in the source; they are usually repeats but may differ in a detail not shown here. Equal entries are not always repeated. Structures can show the parent of a compound that is named as a salt. ± gives the standard deviation of the averaged measurements. Whole data set: some 2,600 compounds, median “total cell number (DAPI+ nuclei) relative to DMSO vehicle control” near -1.4, cut for the lowest 2% near -23. The list shows a part of the results.

In the assay the test system is jimpy (Plp1 jimpy) mouse iPSC-derived oligodendrocyte progenitor cells. In words: total cell number (DAPI+ nuclei) relative to DMSO vehicle control (SDs above negative control mean); higher = more surviving cells. Conditions: 10 µM; 3 days.
`CC1(C)O[C@@H]2[C@@H](CO[C@@]3(COS(N)(=O)=O)OC(C)(C)O[C@@H]23)O1` [Topiramate] displayed a total cell number of 0.307. The same measure for `COc1cc(NS(=O)(=O)c2ccc(N)cc2)nc(OC)n1` [Sulphadimethoxine]: -0.58. As for `COc1ccc2cc3[n+](cc2c1OC)CCc1cc2c(cc1-3)OCO2` [Berberine HCl], the total cell number was -10.6. As to `COc1cc2c(cc1Cc1cccc(Cl)c1F)c(=O)c(C(=O)O)cn2[C@H](CO)C(C)C` [Elvitegravir (GS-9137, JTK-303)], the total cell number is -9.4. In turn, `CC(=O)NC[C@H]1CN(c2ccc(N3CCOCC3)c(F)c2)C(=O)O1` [Linezolid] came in with a total cell number of 0.892 ± 2.1. Consider `O=c1c2ccccc2[nH]c(=S)n1CCN1CCC(=C(c2ccc(F)cc2)c2ccc(F)cc2)CC1` [Diacylglycerol Kinase Inhibitor II], for which the total cell number was -0.322. For the compound `Cc1nccn1CC1CCc2c(c3ccccc3n2C)C1=O` (stereo unspecified) [Ondansetron HCl], the total cell number came to 6.45. As for `COc1ccc2c(c1)c(CC(=O)OCC(=O)O)c(C)n2C(=O)c1ccc(Cl)cc1` [Acemetacin], the figure is -5.97; as for `CN1CC(=O)N=C1NC(=O)Nc1cccc(Cl)c1` [Fenobam], -1.83; as for `CCCc1c(OCCCOc2ccc(OCC(=O)O)cc2)ccc(C(C)=O)c1O`, -1.19. The same measure for `CC1=C(C(=O)O)N2C(=O)[C@@H](NC(=O)[C@H](N)c3ccccc3)[C@H]2SC1` [Cephalexin hydrate]: -0.337. Turning to `CC1=C(C(=O)O)N2C(=O)[C@@H](NC(=O)[C@H](N)c3ccccc3)[C@H]2SC1` [Cephalexin], the total cell number is -5.01. As for `CC[C@H](C)C(=O)O[C@H]1C[C@H](O)C=C2C=C[C@H](C)[C@H](CC[C@@H](O)C[C@@H](O)CC(=O)O)[C@H]21` [Pravastatin sodium], the figure is -3.03; as for `Cc1ccc(S(=O)(=O)/C=C/C#N)cc1`, -3.49 and -9.02; as for `Nc1ccccc1NC(=O)c1ccc(CNc2nccc(-c3cccnc3)n2)cc1` [Mocetinostat (MGCD0103)], -16.5. Regarding `C[C@H](CCC(=O)NCCS(=O)(=O)O)[C@H]1CC[C@H]2[C@@H]3[C@H](O)C[C@@H]4C[C@H](O)CC[C@]4(C)[C@H]3C[C@H](O)[C@]12C` [Sodium Taurocholate hydrate], the total cell number was 0.747. The same measure for `COc1cc(-c2cc(-c3cccc(O)c3)cnc2N)cc(OC)c1OC`: -10.9; for `COc1cc2ncnc(Nc3ccc(O)c(Br)c3)c2cc1OC`: -7.29; for `CCCC(=O)Nc1cccc(NC(=O)c2ccccc2Br)c1`: -0.0444.

`Cc1cccc(C2CN(C)CCc3c2cc(O)c(O)c3Cl)c1` (stereo unspecified) registered a total cell number of 0.122.

As for `C=C1[C@H](CO)[C@@H](O)C[C@@H]1n1cnc2c(=O)[nH]c(N)nc21` [Entecavir Hydrate], the total cell number was -5.3. As for `CC(=O)O[C@]1(C(C)=O)CC[C@H]2[C@@H]3C=C(C)C4=CC(=O)CC[C@]4(C)[C@H]3CC[C@@]21C` [Megestrol Acetate], the total cell number amounted to 6.62. As for `CN(C)C(=O)c1cc2cnc(Nc3ccc(N4CCNCC4)cn3)nc2n1C1CCCC1`, the figure is 2.64; as for `CC[C@@]1(O)C(=O)OCc2c1cc1n(c2=O)Cc2cc3c(CN(C)C)c(O)ccc3nc2-1` [Topotecan hydrochloride hydrate], -9.57; as for `CC[C@@]1(O)C(=O)OCc2c1cc1n(c2=O)Cc2cc3c(CN(C)C)c(O)ccc3nc2-1` [Topotecan HCl], -21.7.

Regarding `Cc1cc(Nc2cc(CN3CCOCC3)c3nc(C)c(Cc4ccc(Cl)cc4F)n3n2)n[nH]1`, the total cell number is -13.9.

Consider `Nc1nnc(-c2cccc(Cl)c2Cl)c(N)n1` [Lamotrigine], for which the total cell number is -1.75 ± 0.31.

As to `Oc1cc(O)cc(/C=C/c2ccc(O)c(O)c2)c1` [Piceatannol], the total cell number was -8.4 ± 1.1. Consider `CCN1CCN(c2ccc(Nc3cc(N(C)C(=O)Nc4c(Cl)c(OC)cc(OC)c4Cl)ncn3)cc2)CC1`, for which the total cell number was -1.51. As for `Nc1nc(=O)[nH]cc1F` [Flucytosine], the figure is 2.35. As for `N=C(N)c1ccc(N=NNc2ccc(C(=N)N)cc2)cc1` [Diminazene Aceturate], the figure is -2.28. As for `C[C@H](CCC(=O)O)[C@H]1CC[C@H]2[C@@H]3C[C@H](O)[C@@H]4C[C@H](O)CC[C@]4(C)[C@H]3CC[C@]12C` [Hyodeoxycholic acid (HDCA)], the figure is -0.0458; as for `NC(=O)Nc1sc(-c2ccc(F)cc2)cc1C(N)=O`, -10.4; as for `CC1(C)C(=O)N(CCN2CCC(C(=O)c3ccc(F)cc3)CC2)c2ccccc21` [LY-310,762 hydrochloride], -4.62. Turning to `CC(C)(C)OC(=O)N[C@H]1CCCCC/C=C\[C@@H]2C[C@@]2(C(=O)NS(=O)(=O)C2CC2)NC(=O)[C@@H]2C[C@@H](OC(=O)N3Cc4cccc(F)c4C3)CN2C1=O` [Danoprevir (ITMN-191)], the total cell number was -1.1.

Take `COc1ccnc2[nH]cc(C(=O)C(=O)N3CCN(C(=O)c4ccccc4)C[C@H]3C)c12`: the total cell number was -0.607. As for `CCCC(=O)Nc1ccc(OCC(O)CNC(C)C)c(C(C)=O)c1` (stereo unspecified) [Acebutolol HCl], the figure is -2.32. As for `C[C@@H]1O[C@@H](OC[C@H]2O[C@@H](Oc3c(-c4ccc(O)c(O)c4)oc4cc(O)cc(O)c4c3=O)[C@H](O)[C@@H](O)[C@@H]2O)[C@H](O)[C@H](O)[C@H]1O` [Rutin], the figure is -0.749; as for `CN1[C@@H]2CC[C@H]1C[C@@H](OC(c1ccccc1)c1ccccc1)C2` [Benztropine mesylate], -3.27 ± 0.14. The same measure for `CO/N=C(\C(=O)N[C@@H]1C(=O)N2C(C(=O)O)=C(CSC(=O)c3ccco3)CS[C@H]12)c1csc(N)n1` [Ceftiofur HCl]: 0.0421; for `C/C(O)=C(\C#N)C(=O)Nc1ccc(C(F)(F)F)cc1` [Teriflunomide]: 0.229. The compound `COc1nc(C)cnc1NS(=O)(=O)c1cccnc1-c1ccc(-c2nnco2)cc1` [Zibotentan (ZD4054)] had a total cell number of 1.39.

For the compound `Nc1nccc2c1ncn2C1C=C(CO)C(O)C1O` (stereo unspecified) [3-Deazaneplanocin A (DZNeP)], the total cell number is -9.16. As for `Cn1cc(/C=C/C(=O)c2cccc(F)c2)cc1/C=C/C(=O)NO`, the figure is -3.97. As for `N[C@@H](CC(=O)N1CCn2c(nnc2C(F)(F)F)C1)Cc1cc(F)c(F)cc1F` [Sitagliptin phosphate monohydrate], the figure is -1.17; as for `Cn1cc(C2=C(c3cn(CCCSC(=N)N)c4ccccc34)C(=O)NC2=O)c2ccccc21` [Ro 31-8220 Mesylate], -15.6.
